Hit rate of the full screen: of about 94,000 compounds, about 4,000 (4.3%) were called active. This list was built around the results that the source calls inconclusive (neither active nor inactive); the mix of calls is not that of the screen. Calls follow the shape of the dose curve; as a rule, active = well fitted inhibition curve with a large enough effect; inconclusive = small, poorly fitted or top-dose-only effect; inactive = no such curve, though single readings can be large or run the other way. Where the call is inconclusive, the potency comes from a doubtful curve fit.
experiment: Cytotoxic Profiling in NIH 3T3 Cell Line of Diverse Libraries Using Quantitative High-Throughput Screening; details: NIH 3T3 viability, CellTiter-Glo ATP luminescence, 48-72 h; series mostly up to 96.7 µM; also: nearly all actives have a fitted effect of over 55% in size
Method in brief: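 Viability of NIH 3T3 cells after 48 or 72 hr compound treatment at 37 °C was assessed by CellTiter-Glo, with luminescence imaged following a 10 min room-temperature step.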
Potency is read from the fitted curve at half-maximal effect; tags tell the direction and shape of the fitted curve.

Structure (SMILES)	Potency
CCOCCCNC(=O)C1CCCN1Cc1cccc(-c2cccc(OC)c2)c1 (stereo not given)	active: 31.6 µM
Cc1cc(C)cc(NC(=O)Cn2c(N3CCC(C)CC3)nc(C)cc2=O)c1	inconclusive: 44.7 µM [inhibitor, partial curve, poor fit]
CN(Cc1ccccc1)C(=O)c1ccc2c(c1)NC(C)(COc1ccccc1)CO2 (stereo not given)	active: 50.1 µM
Cc1ccc(CN(C)Cc2cnc(S(=O)(=O)C(C)C)n2CCc2ccccc2)o1	inconclusive: 44.7 µM [inhibitor, partial curve]
CSc1cccc(NC(=O)c2cc3c(N4CCCC4)nc(C)cn3n2)c1	inconclusive: 25.1 µM [inhibitor, full curve]
Cc1ccc(NC(=O)c2cc3n(n2)CC(c2ccc(Cl)cc2)OC3)c(Cl)c1 (stereo not given)	inactive
COc1ccccc1-c1nc(C(=O)NC2CC2)n2ccncc12	active: 56.2 µM
O=S(=O)(c1ccccc1)c1nnn2c1nc(N1CCOCC1)c1ccccc12	inactive
COc1cc(F)ccc1-c1cc(C(=O)NCc2ccnc(N)c2)c2c(c1)ncn2C	inconclusive: 12.6 µM [inhibitor, full curve, poor fit]
COc1ccc2[nH]c(C(=O)N3CCN4CCS(=O)(=O)N(C5CC5)C(=O)C4C3)cc2c1 (stereo not given)	inactive
COc1ccccc1CC(=O)N1CCC2(CC1)NC(=O)N(c1cccc(F)c1)N2	inconclusive: 10 µM [inhibitor, full curve, poor fit]
CC(C)NC(=O)C[C@@H]1C[C@H]2O[C@H](CNCc3ccncc3F)[C@@H](O)[C@H]2O1	inactive
COc1cccc(CNC(=O)c2cc3c(N4CCCC4)nc(C)cn3n2)c1	inconclusive: 50.1 µM [inhibitor, partial curve, poor fit]
O=C(c1ccsc1)N1CCCCCC1c1nc(-c2cccnc2)no1 (stereo not given)	inactive
CCN1CC(C(=O)N2CCC(Sc3ccc(C)cc3)CC2)CC1=O (stereo not given)	inconclusive: 44.7 µM [inhibitor, partial curve, poor fit]
CCn1nc(CC(C)C)cc1C(=O)N1CCCC1c1nonc1C (stereo not given)	inconclusive: 89.1 µM [inhibitor, single point]
CN(Cc1cccnc1)c1nc2c(c(=O)[nH]1)CCN(Cc1cccc(Cl)c1)CC2	inconclusive: 39.8 µM [inhibitor, partial curve]
O=C(Cc1ccccc1F)N1CCC2(CC1)CN(c1ccncn1)CC2CO (stereo not given)	inconclusive: 44.7 µM [inhibitor, partial curve, poor fit]
CS(=O)(=O)N1CCCN(C(=O)C2(c3ccccc3)CC2)c2ccccc21	inconclusive: 50.1 µM [inhibitor, partial curve, poor fit]
O=S(=O)(NCC1(COc2cnccn2)C[C@@H](O)[C@@H](O)C1)c1ccc(F)cc1 (stereo not given in full)	inconclusive: 100 µM [inhibitor, partial curve, poor fit]

Structure (SMILES)	Potency
O=C(NCc1cc2n(n1)CCN(C1CCCCC1)C2)Nc1cccc(F)c1	inactive
O=C(c1ccc(F)c(Cl)c1)N1CCN(C(=O)c2nnn3c2COC(c2ccccc2)C3)CC1 (stereo not given)	inconclusive: 44.7 µM [inhibitor, partial curve, poor fit]
COc1ccc(-c2cc(N3CCC(NC(=O)Cc4ccc(Cl)cc4)CC3)n[nH]2)cc1	inconclusive: 31.6 µM [inhibitor, full curve]
O=C(NCCNC(=O)c1ccc(-c2cccc(C(F)(F)F)c2)cc1)c1ccccc1	inactive
O=C(CNC(=O)c1cccc(-c2ccc(C(F)(F)F)cc2)c1)NCC1CC1	inconclusive: 44.7 µM [inhibitor, partial curve, poor fit]
CC(C)NC(=O)N[C@H]1C[C@@H](Cc2cc(CN(C)c3ccccc3)on2)C1(C)C	inconclusive: 70.8 µM [inhibitor, partial curve]
CCC1=C(C(=O)OC)C(c2ccccc2)N2C(CC(=O)NCC3CCCO3)=CSC2=N1 (stereo not given)	inconclusive: 70.8 µM [inhibitor, single point]
Cc1ccc2nc(C3CCCN(Cc4cccc(-c5cccs5)c4)C3)[nH]c(=O)c2c1 (stereo not given)	inconclusive: 50.1 µM [inhibitor, partial curve, poor fit]
O=C(Nc1ccc2c(N3CCCC3)ncnc2c1)c1cccc(F)c1	inconclusive: 10 µM [inhibitor, full curve, poor fit]
COc1ccccc1CCN1CCCC(CN(C)C(=O)c2cc(C)n(C)c2C)C1 (stereo not given)	inconclusive: 31.6 µM [inhibitor, partial curve, poor fit]
Cc1ccc(C)c(-c2[nH]ncc2CN2CCCC(CO)(CCc3ccccc3)C2)c1 (stereo not given)	inconclusive: 56.2 µM [inhibitor, partial curve, poor fit]
N#Cc1cccc(C(=O)N2CCc3c(n(Cc4ccccc4)n(-c4ccccc4)c3=O)C2)c1	inconclusive: 100 µM [inhibitor, partial curve, poor fit]
Nc1ncccc1CN1CCC2(CC1)COCCN2C(=O)c1ccccc1	inconclusive: 28.2 µM [inhibitor, full curve]
O=C(Nc1ccc(F)c(Cl)c1)C1=NO[C@@H]2CN(Cc3cccnc3)C[C@H]12	inconclusive: 44.7 µM [inhibitor, full curve]
Cc1cc2nc3n(c(=O)c2n1CC(=O)N1CCN(c2ccccc2F)CC1)CCCCC3	inconclusive: 35.5 µM [inhibitor, partial curve, poor fit]
CCc1ccc(NC(=O)Nc2cccc(-c3nnc4n3CCCC4)c2)cc1	inactive
Cc1nn(-c2ccccc2)c2c1C(C)N(C1CCN(C(=O)c3cccc(Cl)c3)C1)C2=O (stereo not given)	active: 31.6 µM
CCN1c2cc(C(=O)Nc3cccc(Br)c3)ccc2C(=O)N2CCCCC21 (stereo not given)	active: 17.8 µM
COCCN1CCNc2nc(COc3cccc(C(F)(F)F)c3)n(Cc3ccccc3)c2C1=O	inconclusive: 70.8 µM [inhibitor, single point]
CN(CCC(C)(C)O)C(=O)c1cc2c(C(F)(F)F)nn(C)c2s1	inactive

— PubChem BioAssay AID1345082 (National Center for Advancing Translational Sciences (NCATS), 2018)
